A collection of fitness landscapes (doi:10.1126/science.1257360)
This is one part of the list.

B1: PhoQ; a variant is named by its letters at X, in order, P23837 (parent)
chain: MKKLLRLFFPLSLRVRFLLATAAVVLVLSLAYGMVALIGYSVSFDKTTFRLLRGESNLFYTLAKWENNKLHVELPENIDKQSPTMTLIYDENGQLLWAQRDVPWLMKMIQPDWLKSNGFHEIEADVNDTSLLLSGDHSIQQQLQEVREDDDDAEMTHSVAVNVYPATSRMPKLTIVVVDTIPVELKSSYMVWSWFIYVLSANLLLVIPLLWVAAWWSLRPIEALAKEVRELEEHNRELLNPATTRELTSLVRNLNRLLKSERERYDKYRTTLTDLTHSLKTPLXXLQXXLRSLRSEKMSVSDAEPVMLEQISRISQQIGYYLHRASMRGGTLLSRELHPVAPLLDNLTSALNKVYQRKGVNISLDISPEISFVGEQNDFVEVMGNVLDNACKYCLEFVEISARQTDEHLYIVVEDDGPGIPLSKREVIFDRGQRVDTLRPGQGVGLAVAREITEQYEGKIVAGESMLGGARMEVIFGRQHSAPKDE

Variants of: B1
Assay: enrichment ratio after two sorts for PhoP signalling (ratio (wild type AVST 3.29)); higher = more functional
Conditions: with PhoP (E. coli)

Point of comparison: AGSS, enrichment ratio 11.2. Against it:
- CLGF — lower, ≤ 0.25
- VAQK — lower, ≤ 0.25
- GWEP — lower, ≤ 0.25
- TALE — lower, ≤ 0.25
- YAMK — lower, ≤ 0.25
- TWLC — lower, ≤ 0.25
- RTQH — lower, ≤ 0.25
- ETRR — lower, ≤ 0.25
- QEFN — lower, 3.01
- PNWS — lower, ≤ 0.25
- ETIH — lower, ≤ 0.25
- SCDT — lower, ≤ 0.25
- TVAP — lower, ≤ 0.25
- MCYC — lower, ≤ 0.25
- PPKV — lower, ≤ 0.25
- WDGP — lower, ≤ 0.25
- YIKN — lower, ≤ 0.25
- RFGH — lower, ≤ 0.25
- EALW — lower, ≤ 0.25
- WMAC — lower, ≤ 0.25
- TAFP — lower, 0.47
- GCSW — lower, ≤ 0.25
- ACEL — lower, ≤ 0.25
- FLIR — lower, ≤ 0.25
- KGMR — lower, ≤ 0.25
- TFQK — lower, ≤ 0.25
- KVML — lower, ≤ 0.25
- TAWL — lower, 6.96
- VKSQ — lower, ≤ 0.25
- DILV — lower, ≤ 0.25
- KSFT — lower, ≤ 0.25
- LGVD — lower, ≤ 0.25
- DRIQ — lower, ≤ 0.25
- WMRC — lower, ≤ 0.25
- IMHA — lower, ≤ 0.25
- ELKE — lower, ≤ 0.25
- LGIY — lower, ≤ 0.25
- ERCR — lower, ≤ 0.25
- PQGV — lower, ≤ 0.25
- QSIS — lower, ≤ 0.25
- AMAS — lower, 10.9
- PINQ — lower, ≤ 0.25
- KEYN — lower, ≤ 0.25
- DIWY — lower, ≤ 0.25
- WSHH — lower, ≤ 0.25
- QPIR — lower, ≤ 0.25
- RESL — lower, ≤ 0.25
- QMHP — lower, ≤ 0.25
- SYMY — lower, ≤ 0.25
- FNAS — lower, ≤ 0.25
- WLAW — lower, ≤ 0.25
- FDWH — lower, ≤ 0.25
- WNNW — lower, ≤ 0.25
- YYIN — lower, ≤ 0.25
- MVHV — lower, ≤ 0.25
- SGYY — lower, ≤ 0.25
- MCWF — lower, 2.83
- GPGP — lower, ≤ 0.25
- DESH — lower, ≤ 0.25
- SVPR — lower, ≤ 0.25
- DAES — lower, ≤ 0.25
- DKTM — lower, ≤ 0.25
- KPCK — lower, ≤ 0.25
- FGKC — lower, ≤ 0.25
- CCND — lower, ≤ 0.25
- SQLT — lower, 11
- SDCY — lower, 0.717
- REIC — lower, ≤ 0.25
- FGPN — lower, ≤ 0.25
- ALMN — lower, ≤ 0.25
- MIVM — lower, 2.94
- TEMI — higher, 51.6
- NWSM — lower, ≤ 0.25
- TFPN — lower, ≤ 0.25
- RFCW — lower, ≤ 0.25
- MFHY — lower, ≤ 0.25
- VPYN — lower, ≤ 0.25
- SQGQ — lower, 3.68
- PLMI — lower, ≤ 0.25
- QYPS — lower, ≤ 0.25
- QHLK — lower, ≤ 0.25
- TKRI — lower, ≤ 0.25
- TPDE — lower, ≤ 0.25
- PTAD — lower, ≤ 0.25
- FMKS — lower, ≤ 0.25
- VCLN — lower, 2.29
- NRTY — lower, ≤ 0.25
- TTVQ — lower, 5.74
- SPFM — lower, ≤ 0.25
- HEET — lower, ≤ 0.25
- SVHQ — lower, ≤ 0.25
- GKFM — lower, ≤ 0.25
- HMVG — lower, ≤ 0.25
- GMRP — lower, ≤ 0.25
- NNAL — lower, 0.34
- PAYA — lower, ≤ 0.25
- FIYQ — lower, ≤ 0.25
- LRII — lower, ≤ 0.25
- DWAA — lower, ≤ 0.25
- MFIY — lower, ≤ 0.25
- ICAT — lower, ≤ 0.25
- GQRI — lower, ≤ 0.25
- PICA — lower, ≤ 0.25
- CFND — lower, ≤ 0.25
- RAWR — lower, ≤ 0.25
- FQFT — lower, ≤ 0.25
- RADE — lower, ≤ 0.25
- DHHQ — lower, ≤ 0.25
- RIIF — lower, ≤ 0.25
- RMCE — lower, ≤ 0.25
- SYHK — lower, ≤ 0.25
- TTDL — lower, 6.94
- MEKV — lower, ≤ 0.25
- FATG — lower, ≤ 0.25
- IWLM — lower, ≤ 0.25
- LITQ — lower, ≤ 0.25
- EGSR — lower, ≤ 0.25
- FNPT — lower, ≤ 0.25
- HPVY — lower, ≤ 0.25
- VDDK — lower, ≤ 0.25
- QYLP — lower, ≤ 0.25
- DACL — lower, ≤ 0.25
- SAVL — lower, 9.41
- FCID — lower, ≤ 0.25
- ERSY — lower, ≤ 0.25
- QMYD — lower, ≤ 0.25
- DHTI — lower, ≤ 0.25
- VVWF — lower, ≤ 0.25
- PLLD — lower, ≤ 0.25
- SYAM — lower, ≤ 0.25
- EDDR — lower, ≤ 0.25
- FYIE — lower, ≤ 0.25
- PDAN — lower, ≤ 0.25
- DHLK — lower, ≤ 0.25
- FYVI — lower, ≤ 0.25
- PMEM — lower, ≤ 0.25
- VPSI — lower, ≤ 0.25
- QVIH — lower, ≤ 0.25
- IGRY — lower, ≤ 0.25
- TLMN — lower, ≤ 0.25
- ICCQ — lower, ≤ 0.25
- MECA — lower, 3
- TRGW — lower, ≤ 0.25
- MGLV — higher, 15.2
- GQWY — lower, ≤ 0.25
- KYQL — lower, ≤ 0.25
- RYHM — lower, ≤ 0.25
- SKWY — lower, ≤ 0.25
- IGSQ — lower, ≤ 0.25
- SLDD — lower, ≤ 0.25
- AKHP — lower, ≤ 0.25
- DYDM — lower, ≤ 0.25
- GHRC — lower, ≤ 0.25
- DIVF — lower, ≤ 0.25
- IMER — lower, ≤ 0.25
- WPVD — lower, ≤ 0.25
- FMNP — lower, ≤ 0.25
- MIEF — lower, ≤ 0.25
- ESEM — lower, ≤ 0.25
- VNRY — lower, ≤ 0.25
- HCYF — lower, ≤ 0.25
- LSYL — the same, 11.2
- HSYR — lower, ≤ 0.25
- DKGL — lower, ≤ 0.25
- IYPK — lower, ≤ 0.25
- WQLN — lower, ≤ 0.25
- YTYL — lower, ≤ 0.25
- PKVY — lower, ≤ 0.25
- RGNS — lower, ≤ 0.25
- WNES — lower, ≤ 0.25
- ACNF — lower, ≤ 0.25
- LGFY — lower, 3.82
- VDWC — lower, ≤ 0.25
- RAFV — lower, ≤ 0.25
- RNNY — lower, ≤ 0.25
- NLIS — lower, ≤ 0.25
- GIRG — lower, ≤ 0.25
- TDPH — lower, ≤ 0.25
- TALG — lower, 9.94
- PMLP — lower, ≤ 0.25
- DLAT — lower, ≤ 0.25
- KYLN — lower, ≤ 0.25
- FHAK — lower, ≤ 0.25
- YSPC — lower, ≤ 0.25
- NNPN — lower, ≤ 0.25
- EHDM — lower, ≤ 0.25
- AWIK — lower, ≤ 0.25
- LSMN — lower, ≤ 0.25
- WVIA — lower, ≤ 0.25
- LTGK — lower, ≤ 0.25
- KNYY — lower, ≤ 0.25
- LLYT — lower, ≤ 0.25
- LPSA — lower, ≤ 0.25
- EINM — lower, ≤ 0.25
- MRIP — lower, ≤ 0.25
- EDGD — lower, ≤ 0.25
- GMTM — lower, ≤ 0.25
- YYCY — lower, ≤ 0.25
- LCIH — lower, ≤ 0.25
- FQEW — lower, ≤ 0.25
- FALN — lower, 6.83
- VFHK — lower, ≤ 0.25
- YLRV — lower, ≤ 0.25
- TFHQ — lower, ≤ 0.25
- HKCV — lower, ≤ 0.25
- SSYQ — lower, 0.409
- NPFP — lower, ≤ 0.25
- TIDP — lower, ≤ 0.25
- QLMP — lower, ≤ 0.25
- WLWK — lower, ≤ 0.25
- PALM — lower, ≤ 0.25
- YPNH — lower, ≤ 0.25
- YQRR — lower, ≤ 0.25
- FIPL — lower, ≤ 0.25
- GVMG — lower, ≤ 0.25
- LSRS — lower, ≤ 0.25
- LKFQ — lower, ≤ 0.25
- RLNS — lower, ≤ 0.25
- FHRQ — lower, ≤ 0.25
- YCSN — lower, ≤ 0.25
- QGWT — higher, 36
- NFAK — lower, ≤ 0.25
- FNKT — lower, ≤ 0.25
- SVKT — lower, ≤ 0.25
- LNNN — lower, ≤ 0.25
- WFVC — lower, ≤ 0.25
- LAMD — lower, ≤ 0.25
- YEKR — lower, ≤ 0.25
- QFHC — lower, ≤ 0.25
- RHVH — lower, ≤ 0.25
- TCRD — lower, ≤ 0.25
- HYKN — lower, ≤ 0.25
- AHAA — lower, ≤ 0.25
- NHQV — lower, ≤ 0.25
- DGKG — lower, ≤ 0.25
- HTAS — lower, ≤ 0.25
- ITTC — lower, ≤ 0.25
- MMSS — lower, ≤ 0.25
- EYVV — lower, ≤ 0.25
- VELK — lower, ≤ 0.25
- AEWG — lower, 0.38
- FVSD — lower, ≤ 0.25
- WNSH — lower, ≤ 0.25
- GGIH — lower, ≤ 0.25
- YSWY — lower, ≤ 0.25
- QVKS — lower, ≤ 0.25
- WMSK — lower, ≤ 0.25
- FSCY — lower, ≤ 0.25
- FAIW — lower, ≤ 0.25
- IIGP — lower, ≤ 0.25
- HWCW — lower, ≤ 0.25
- HDRI — lower, ≤ 0.25
- TTTD — lower, ≤ 0.25
- AKPD — lower, ≤ 0.25
- TDIV — lower, 2.94
- WMMI — lower, ≤ 0.25
- GWRV — lower, ≤ 0.25
- MVVM — lower, ≤ 0.25
- HKLQ — lower, ≤ 0.25
- RMVI — lower, ≤ 0.25
- MCGC — lower, ≤ 0.25
- MIGL — lower, 1.45
- EYMG — lower, ≤ 0.25
- PMRN — lower, ≤ 0.25
- WWGC — lower, ≤ 0.25
- GYAP — lower, ≤ 0.25
- YSPF — lower, ≤ 0.25
- FPAS — lower, ≤ 0.25
- ESDP — lower, ≤ 0.25
- SQPV — lower, ≤ 0.25
- NTLA — lower, ≤ 0.25
- PDYC — lower, ≤ 0.25
- ILQI — lower, ≤ 0.25
- HEDT — lower, ≤ 0.25
- RYYC — lower, ≤ 0.25
- VAEY — lower, ≤ 0.25
- PNQG — lower, ≤ 0.25
- KFAN — lower, ≤ 0.25
- TLQI — higher, 14.7
- PANG — lower, ≤ 0.25
- LRAM — lower, ≤ 0.25
- KQPN — lower, ≤ 0.25
- EPYH — lower, ≤ 0.25
- KIVV — lower, ≤ 0.25
- FMAY — lower, ≤ 0.25
- EEPK — lower, ≤ 0.25
- MFIT — lower, ≤ 0.25
- YPEV — lower, ≤ 0.25
- QRSC — lower, ≤ 0.25
- SGKL — lower, ≤ 0.25
- QGHH — lower, 6.17
- FVML — higher, 13.2
- YMSM — lower, ≤ 0.25
- RFPD — lower, ≤ 0.25
- LKDD — lower, ≤ 0.25
- IKHD — lower, ≤ 0.25
- FRSH — lower, ≤ 0.25
- SDWG — lower, ≤ 0.25
- HPII — lower, ≤ 0.25
- KLYW — lower, ≤ 0.25
- NGDG — lower, ≤ 0.25
- KYRS — lower, ≤ 0.25
- IWNC — lower, ≤ 0.25
- PNLQ — lower, 1.01
- YTRQ — lower, ≤ 0.25
